The record followed here is PubChem BioAssay AID1508623 (National Center for Advancing Translational Sciences (NCATS), 2021).

Out of some 48,000 compounds screened, about 450 (0.94%) were called active. Not shown: some 19% with an inconclusive outcome. The call rests on the fitted dose curve; in most records, active means well fitted inhibition curve with a large enough effect; inconclusive means small, poorly fitted or top-dose-only effect; inactive means no such curve, though single readings can be large or run the other way. This is one part of the list.

This test in a line: Primary qHTS for Identification of Small Molecule Inhibitors of Huntingtin Promoter Activity. Further: nearly all actives have a fitted effect of over 50% in size. To be noted: HEK293 HTT promoter firefly luciferase reporter (activity 0% = vehicle and -100% = no light), 24 h; series mostly up to 57.5 µM; activity change, negative = inhibition: at the top concentration. The gist of the method: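 HEK293 Fluc reporter, 2,500 cells/well, 24 h pre-culture; cpds up to 57.5 uM final, 24 h 37 degrees C; Dual-Glo, 10 min RT; normalized vehicle = 0%, zero RLU = -100%.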
A general note: qHTS replaces the single test concentration by a dilution series.
`CCOc1ccc(CNC(=O)c2ccc3c(c2)nnn3C2CCCC2)cc1`: the “activity change, negative = inhibition” value is inactive: -5.07%. The figure for `Cc1cccc(Cn2c(=O)n(Cc3ccc4c(c3)OCO4)c(=O)c3oc4ccccc4c32)c1` is inactive: -8.81%; for `CCc1ccccc1NC(=O)c1cc2nc(-c3ccc(OC)c(OC)c3)cc(C(F)(F)F)n2n1` it is inactive: -5.43%; for `O=c1oc2c(CN3CCCC3)c(O)ccc2cc1-c1ccccc1` it is inactive: 25%. The result for `COc1ccccc1N1CCN(C(=O)Nc2cn(CC(C)C)c(=O)c3ccccc23)CC1` reads inactive: 5.1%; that for `CCOCCCNC(=O)c1c(NC(=O)c2cc(=O)c3ccccc3o2)sc2c1CCC2`, inactive: -13.5%; that for `COC(=O)c1ccc(NC(=O)Cn2c(=O)nc(-c3ccccc3)c3ccccc32)cc1`, inactive: -35.5%. The figure for `COc1cc2ccccc2cc1C(=O)Nc1ccc2oc(-c3ccc(Cl)cc3)nc2c1` is inactive: -1.04%. In the case of `O=C(Nc1ccc(C(=O)OCc2cc(=O)n3c4c(sc3n2)CCCC4)cc1)c1ccc(Cl)cc1`, the “activity change, negative = inhibition” value was inactive: -7.61%. For `Cc1ccc2c(=O)cc(C(=O)Nc3c(C(=O)Nc4cccc(Cl)c4)oc4ccccc34)oc2c1`, the “activity change, negative = inhibition” value was inactive: -8.67%. The figure for `O=C(c1ccc(Br)s1)N(Cc1cccnc1)c1nc2ccc(F)cc2s1` is inactive: -9.66%; for `CCOc1ccccc1NC(=O)CN1C(=O)COc2ccc(S(=O)(=O)N3CCCCC3)cc21` it is inactive: 2.22%. The result for `Cc1ccc(N2C(=O)CSC23C(=O)N(CC(=O)NC2CCCCC2)c2ccccc23)cc1C` (configuration not stated) reads inactive: 2.15%; that for `Oc1c(Br)cc(Br)c2cccnc12`, inactive: -1.21%; that for `Nc1nc(=O)n([C@@H]2O[C@H](CO)[C@@H](O)[C@@H]2F)cc1I`, inactive: 4.84%. Consider `CCOC(=O)c1c(C)oc2ncnc(Nc3cc(Cl)ccc3OC)c12`, for which the “activity change, negative = inhibition” value was inactive: -0.511%. As for `Cc1ccc2nc(COc3ccccc3NC(=O)COc3ccccc3Cl)cc(=O)n2c1`, the “activity change, negative = inhibition” value was inactive: -9.78%. On to `CSc1ncc(C(=O)NCc2ccc(C)cc2)c(-c2ccccc2)n1`, for which the “activity change, negative = inhibition” value is inactive: 10%. The figure for `Cc1ccc(CNC(=O)C2CCN(S(=O)(=O)c3c(C)noc3/C=C/c3c(C)cc(C)cc3C)CC2)cc1` is inactive: -16.2%; for `CCOc1ccccc1CNC(=O)CCCN1C(=O)c2cccnc2Oc2ccc(Cl)cc21` it is inactive: -12.2%. In the case of `COc1ccccc1Cn1c(SCC(=O)C(C)(C)C)nc2ccccc2c1=O`, the “activity change, negative = inhibition” value was inactive: -38.9%. Take `CCNC(=O)C1CCN(Cc2cc3ccccc3n2Cc2ccc(C)cc2)CC1`: the “activity change, negative = inhibition” value was inactive: -15.7%. `COC(=O)CN1C(C(=O)c2ccccc2)=C(OC(=O)c2ccc(C)cc2)c2ccccc2S1(=O)=O`: the “activity change, negative = inhibition” value is inactive: -12.1%. The result for `Clc1cccc(CSc2ccc(-c3cccs3)nn2)c1` reads inactive: 13.6%; that for `O=C(c1cccn1-c1nnc(N2CCCCC2)s1)N1CCN(c2ccccc2)CC1`, inactive: -11.4%. `CCn1c(=O)c2sccc2n2c(CCC(=O)NCc3ccc(Cl)cc3)nnc12`: the “activity change, negative = inhibition” value is inactive: 7.13%.

As for `N#Cc1ccc(CSc2nnc(-c3ccc(Br)cc3)o2)cc1`, the “activity change, negative = inhibition” value is inactive: -13.7%. The figure for `CCOC(=O)C1CCN(C(=O)Cn2ncc3c4ccccc4n(C)c3c2=O)CC1` is inactive: -6.91%. The result for `COc1ccc(CNC(=O)CCCN2C(=O)c3cccnc3Oc3ccc(Cl)cc32)cc1` reads inactive: -10.9%. With `Cc1cccc(NS(=O)(=O)c2nnc(NC(=O)c3cccc(C)c3)s2)c1`, the “activity change, negative = inhibition” value is inactive: -3.8%. The result for `Cc1ccc(-n2c(SCC(=O)Nc3ccc4c(c3)OCCO4)nc3c([nH]c4ccccc43)c2=O)cc1` reads inactive: -10.7%; that for `Cc1ccc(OCC(=O)Nc2sc3c(c2C(N)=O)CCCC3)c(C(C)(C)C)c1`, inactive: -4.71%.

Regarding `CCOC(=O)c1ccc(NC(=O)CN2CCCCC2)cc1`, the “activity change, negative = inhibition” value was inactive: 15.5%. In the case of `Cc1cccc(NC(=O)c2cc3c(=O)n4ccccc4nc3n2C)c1C`, the “activity change, negative = inhibition” value is inactive: -0.171%. On to `CCCCNC(=O)Cn1cnc2sc(C)c(S(=O)(=O)N3CCN(c4ccccc4OC)CC3)c2c1=O`, for which the “activity change, negative = inhibition” value was inactive: -12%. The figure for `CC(C)OCCCNC(=O)CN1C(=O)COc2ccc(S(=O)(=O)N3CCOCC3)cc21` is inactive: -8.49%; for `COc1ccccc1NC(=O)c1ncoc1-c1ccco1` it is inactive: -15.4%.

With `O=C(Cn1ncc2c3ccccc3n(Cc3ccccc3F)c2c1=O)NCCCc1ccccc1`, the “activity change, negative = inhibition” value is inactive: -26%.

Turning to `CCOc1ccc2nc(NC(=O)c3ccccc3)sc2c1`, the “activity change, negative = inhibition” value is inactive: 30.9%. `COC(=O)c1ccccc1NC(=O)CSc1nc2nc(C)cc(C)n2n1`: the “activity change, negative = inhibition” value was inactive: -8.55%. `CCOc1ccccc1C(=O)N(Cc1ccco1)Cc1ccccc1F`: the “activity change, negative = inhibition” value is inactive: -24.9%. The result for `O=c1c(N2CCCCC2)csc2ccc(F)cc12` reads inactive: 43.5%. Consider `COc1ccc(-c2nc3ccccc3s2)cc1NC(=O)COc1cccc(C)c1`, for which the “activity change, negative = inhibition” value is inactive: 40.5%. The result for `CCc1nc2ccc(C(=O)NCc3cccc(Br)c3)cc2nc1CC` reads inactive: -8.07%; that for `CCc1ccc(S(=O)(=O)Nc2cc3c(cc2N2CCOCC2)n(C)c(=O)c(=O)n3C)cc1`, inactive: -3%. Consider `CCOc1ccc(NC(=O)C(=O)NCCc2ccccc2)cc1`, for which the activity change, negative = inhibition was inactive: -1.29% [at 11.5 µM]. The figure for `COc1ccc(C)cc1NC(=O)N1CCN(c2nnc(C)c3c(C)n(-c4ccccc4)nc23)CC1` is inactive: 5.02%; for `O=C(Cn1c(=O)n(CCCS(=O)(=O)C2CCCCC2)c(=O)c2ccccc21)Nc1ccc(F)c(Cl)c1` it is inactive: -6.13%; for `COCCCNC(=O)c1nn(-c2ccc(C)cc2)c(=O)n(C)c1=O` it is inactive: 0.794%. Turning to `Cc1cc(C)cc(NC(=O)CCCn2c(=O)c3cccn3c3ccccc32)c1`, the “activity change, negative = inhibition” value is inactive: -8.02%. Consider `CCc1cccc(NC(=O)Cn2ncc3c([nH]c4ccc(C)cc43)c2=O)c1`, for which the “activity change, negative = inhibition” value is inactive: 0.901%. The result for `CCOc1ccccc1NC(=O)CCc1c(C)nc2c3cccnc3nn2c1C` reads inactive: -7.33%; that for `CCCCNc1sc(S(=O)(=O)CCC)nc1S(=O)(=O)c1ccc(C)cc1`, inactive: -20.3%; that for `CCNC(=O)c1c2c(nc3ccccc13)C(=O)N(C1CCCCC1)C2`, inactive: -7.08%. The figure for `O=C(NC1CC(=O)N(c2ccccc2)C1)c1ccco1` (configuration not stated) is inactive: -12.8%. The figure for `COc1cccc(C(=O)NCCc2csc(-c3cccc(F)c3)n2)c1OC` is inactive: -18.9%; for `CCc1cccc(NC(=O)CN(c2ccc(C)cc2)S(=O)(=O)c2cccs2)c1` it is inactive: -22.4%; for `CC1(C)CC(=O)c2cc(-c3nc(-c4ccc(Cl)cc4)cs3)c(=O)n(-c3cccc(F)c3)c2C1` it is inactive: -13.9%. In the case of `CC1(C)CCC(c2ccc(Cl)cc2)=C(CN2CCN(c3ccc(C(=O)NS(=O)(=O)c4ccc(N[C@H](CCN5CCOCC5)CSc5ccccc5)c(S(=O)(=O)C(F)(F)F)c4)cc3)CC2)C1`, the “activity change, negative = inhibition” value is inactive: -6.17%.

In the case of `COc1cc(C)ccc1OCCSc1nc2ccc(NC(=O)c3ccc(C)cc3)cc2s1`, the “activity change, negative = inhibition” value is inactive: 2.36%. The result for `COc1ccc(-c2ccc(CCC(=O)O)n2CC(=O)Nc2cccc(Cl)c2C)cc1` reads inactive: -25.2%. The result for `CC(=O)c1cccc(Nc2nn(-c3ccc(OC(F)(F)F)cc3)nc2C(C)=O)c1` reads inactive: -28.6%; that for `COc1ccc(CNC(=O)CCc2c(C)nc3nc(CNC(=O)OC(C)(C)C)nn3c2C)cc1`, inactive: -15%. The result for `Cn1cc(C(=O)NCCc2ccccc2)c(=O)c2cc(S(=O)(=O)N3CCCCCC3)ccc21` reads inactive: -21.2% [at 11.5 µM]; that for `Cc1c(C(=O)N(Cc2ccc(N(C)C)cc2)Cc2ccco2)oc2cc(Br)ccc12`, inactive: -11.7%; that for `O=C(CN1C(=O)CC(c2ccco2)Sc2ccccc21)Nc1ccc(Br)cc1` (configuration not stated), inactive: -27.2%. Turning to `CCCSc1nnc2c(n1)OC(c1ccc(OCC(=O)O)cc1)Nc1ccccc1-2` (configuration not stated), the “activity change, negative = inhibition” value is inactive: 62.7%. The figure for `COc1ccccc1-c1noc(-c2ccc(NCc3cccnc3)c([N+](=O)[O-])c2)n1` is inactive: -5.67%; for `COc1ccc(-n2ccn(Cc3ccccc3C)c(=O)c2=O)cc1` it is inactive: -6.32%. The figure for `CCc1cc2c(cc3c(=O)n(CC(=O)NC4CCCCC4)ncn32)s1` is inactive: 3.08%. The result for `Cc1ccc(OCC(=O)Nc2ccc3[nH]c(=O)sc3c2)cc1` reads inactive: 5.14%; that for `CCOc1ccc(N(C(C)C(=O)NCCSc2ccc(C)cc2)S(C)(=O)=O)cc1` (configuration not stated), inactive: -28.9%; that for `COc1cccc(C(c2sc3nc(-c4ccco4)nn3c2O)N2CCN(c3ccccc3F)CC2)c1` (configuration not stated), inactive: -10.1%. On to `Cc1cc(C)cc(NC(=O)C(=O)NCC(c2cccnc2)N2CCN(c3ccccc3)CC2)c1` (configuration not stated), for which the “activity change, negative = inhibition” value is inactive: -10.3%. The figure for `COc1ccc(-c2cc(C(=O)NCCc3ccc(OC)c(OC)c3)c3ccccc3n2)cc1` is inactive: 8.59%.

For `COc1ccc(NC(=O)C(C)Sc2cc(-c3ccccc3)nc(C)n2)cc1Cl` (configuration not stated), the “activity change, negative = inhibition” value is inactive: -33.7%.

With `O=C(COc1ccc(F)cc1)Nc1ccccc1OCc1cc(=O)n2ccccc2n1`, the “activity change, negative = inhibition” value is inactive: 3.21%. Regarding `COc1ccc(-c2noc(-c3ccc(NC4CCCCC4)c([N+](=O)[O-])c3)n2)cc1`, the “activity change, negative = inhibition” value is inactive: -17.4%. The figure for `CCc1nn2c(=O)cc(COC(=O)c3ccc(NC(=O)C4CCCCC4)cc3)nc2s1` is inactive: 13%.

As for `CCC1CCc2nc3sc(C(=O)Nc4cccc(C(F)(F)F)c4)c(N)c3cc2C1` (configuration not stated), the “activity change, negative = inhibition” value was inactive: -24.1%. For `CCCc1cc(=O)oc2cc(C)c3c(C(C)(C)C)coc3c12`, the “activity change, negative = inhibition” value is inactive: -3.23%. Regarding `COc1cccc(NC(=O)c2ccc3[nH]c(C)cc(=O)c3c2)c1`, the “activity change, negative = inhibition” value is inactive: 11.3%.

As for `O=C(CCn1c(=O)c2cccn2c2cccnc21)NCc1ccccc1F`, the “activity change, negative = inhibition” value is inactive: 6.99%.

Turning to `NC(=O)c1ccccc1O`, the “activity change, negative = inhibition” value is inactive: -2.43%.

In the case of `COC(=O)c1ccc(Cn2nc(-c3ccc(C)cc3)ccc2=O)cc1`, the “activity change, negative = inhibition” value is inactive: -10.3%. The result for `NC(=O)CSc1nnnn1-c1cccc(O)c1` reads inactive: -11.8%; that for `Cn1c(SCc2ccccc2Cl)nc2c([nH]c3ccccc32)c1=O`, inactive: -6.55%.

Consider `COc1cccc(CNS(=O)(=O)c2ccc(-c3cc(C(F)(F)F)on3)s2)c1`, for which the “activity change, negative = inhibition” value is inactive: -6.39%. As to `CCOC(=O)c1ccc(N2C(=O)Cc3cc(OCC)c(OCC)cc3C2c2ccccc2)cc1` (configuration not stated), the activity change, negative = inhibition was inactive: -10.2% [at 11.5 µM]. The figure for `CCOc1ccc(NS(=O)(=O)c2ccc3[nH]cc(C(=O)N4CCCCCC4)c(=O)c3c2)cc1` is inactive: -1.69%.

With `COc1ccc(Cc2nc3ccc(C(=O)NCCCN4CCN(C)CC4)cc3o2)cc1`, the “activity change, negative = inhibition” value was inactive: -24.2%. The figure for `Cc1ccccc1-c1nc(SCC(=O)NCC2CCCO2)c2c(=O)n(C)c(=O)n(C)c2n1` (configuration not stated) is inactive: 13.1%; for `COc1ccc(N2CCN(C(=O)c3sc4nc5n(c(=O)c4c3C)CCC5)CC2)cc1` it is inactive: -2.61%. The figure for `COCCNC(=O)c1ccc2c(=O)n(CCOC)c(SCC(=O)c3c[nH]c4ccccc34)nc2c1` is inactive: -23.9%. For the compound `Cc1cccc(CCNC(=O)CCc2c(C)nc3ncnn3c2C)c1`, the “activity change, negative = inhibition” value is inactive: 4.65%. On to `Cc1ccccc1C(=O)OCc1cc(=O)n2c(C)csc2n1`, for which the “activity change, negative = inhibition” value was inactive: 14.6%. The result for `CCc1nn(CC(=O)NCc2ccc(OC)c(OC)c2)c(=O)c2cc3sc(C)cc3n12` reads inactive: -7.58%.
